Measurements from the supplement of paper PMC11417369.
Some of the results follow.

Tested on: PfSIP2 AP2 domain 1 (GST-tagged)
Test: gcPBM binding intensity (ln(normalized median fluorescence intensity)); higher = stronger DNA binding
In short: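 GST-tagged P. falciparum DNA-binding domains produced in E. coli were incubated for 1 h on an Agilent 4 × 180k array of primer-extended double-stranded 36-bp intergenic genomic probes with negative controls. Binding intensity is the highest Masliner-normalised natural-log median intensity across replicate spots of either probe orientation, with bound protein detected by Alexa488 anti-GST antibody at 488 nm.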

Sequence	gcPBM binding intensity (ln)
TTTCCTTATTAAAACACACAAATACATTATTTAATC [CACACA_site7080]	7.06
ACATTTTTTTCATATCGTACATATTATAATATTTTC [XGTACX_site6524]	7.65
AAAAAAAAAAAAGGAGGTACACAATTTTATATATGC [XGTACX_site5296]	6.97
ACAAGTCAGGCAAAAACATGCATTATTTGAACATTA [TGCATGCA_site864]	6.91
GAGCATTACCCATATACACACATATATATAAACCTA [CACACA_site2737]	7.36
GTACGATAAAAAATTGGACAAAAAAAAAAAAAAAAT [XGTACX_negctrl_site158]	7.03
ATTTCATAAATTAAACGTACATAATACACACACATG [XGTACX_site4155]	7.34
TAAAACAACAAAGAAAATGAAAAAGTAAAAACATAT [CACACA_negctrl_site1049]	6.99
TTTTGTTATTTTTTAGTGCATATAAAGGTTGTTAAG	8.64
TTTTGCAATAATGTTGCACACTAAATAGTCATCTAT [CACACA_site4304]	7.34
AAAAACTAATCTTTAACATGCAACCGTTTATACATA [TGCATGCA_site363]	7.32
TGAGTTACATACTAATGTACACAACAAAAAAAAAAA [XGTACX_site2390]	6.99
TTTTTTTGAACATATACACACTCTAAACTTATACAT [CACACA_site3917]	6.86
AAAGGTTTATATGATACACACATAAGTGATCAGGTT [CACACA_site190]	6.75
TAATTTATGACACGCGCACACATATATATATAGTAA [CACACA_site4249]	7.24
AAAAATTATGGACACACACACATATATATATATATT [CACACA_site4717]	7.22
GGTATACGCAAGTATACACACATATATATATATATA [CACACA_site3240]	9.21
AATAAAATAAAATACACACATACATACATACAAATG [CACACA_site2438]	7.06
AAATATAAAAGTATATGTACATATATATATATATAT [XGTACX_site7446]	9.54
AATAAATAGATATATACACACATATATCTATAATAT [CACACA_site6557]	6.92
CATATTCCCCCCCACACACACACACCCATACATACC [CACACA_site2303]	10.2
CGTGTGTCCCCCTTAATCATCCAATCGTTCATTTTG [CACACA_negctrl_site1008]	7.57

Sequence	gcPBM binding intensity (ln)
TATATAATGGTAAAAACACACAAATATGAAGATGTT [CACACA_site722]	6.77
AGAGGATCATAGTTATGTACACATATTTAACATAAA [XGTACX_site7232]	6.89
TCTTCATTTTTATGTGCATGTAAAATTTTTTTTTTT [TGCATGCA_site963]	8.59
GACAATAAAAAGAAAAGTACATATATAAATTAACCA [XGTACX_site7858]	6.91
TTTTTTTCTAATTATGCACACATATCAAAATATTCA [CACACA_site8886]	10.3
ATATTTATTATATAATGTACAAAAAAAAAAAAAAAA [XGTACX_site629]	6.92
TTACTTAAATATAAGTGTCCTCAAAAAAAAAAAAAA [XGTACX_site460]	6.94
AATATAAGTTTATTAGTGCACAGATAAATATATATT [GTGCAC_site9784]	9.81
ATTTTTTATATTAATTGTACATTGTATATATATATA [XGTACX_site8702]	9.05
ATGTATGTTTTTTTTTTATTGTTCAAAAAGTTGAAG [CACACA_negctrl_site1276]	7.15
TTTTTATAAAAATTATTAAAAAAATTATTTATAGCT [CACACA_negctrl_site265]	6.63
AAATATATTATTATCTTATCAATTAAAAGAATAAAC [CACACA_negctrl_site779]	7.07
TAGCGCATAAAAAAAAAAAAATATATACTAATAAAT [GTGCAC_negctrl_site276]	6.66
TTTTTTTTCAATCTCTATATATTAAGGTTTATATTT [XGTACX_negctrl_site397]	6.64
ATTCAAATATTAAAAAGTACAAAAAAAAAACAAAAA [XGTACX_site1174]	6.98
ATATAATTATTGATATGTACATATTTGTTCTAGTTT [XGTACX_site3012]	7.02
ACAACACTATATTACACATGCATTAAGAGAGTGAAC [TGCATGCA_site124]	7.35
ACATTAAAATATGATTGTACATTTTATTATATTATA [XGTACX_site912]	6.94
CTATCATATTTATGCACACAAAAATAATTAATTCGT [CACACA_site2614]	7.45
ACCTGTTCATATGATCGTACACGTCAGTTTATATGA [XGTACX_site3869]	7.13
TATTTTGAGAATAAATGTACGAATTTTATATTTAAA [XGTACX_site1336]	6.61
TAAAATAAAAATTAAAGTACATATGTATATATATAT [XGTACX_site3984]	9.06

Sequence	gcPBM binding intensity (ln)
GAGTATTCAAGTATTAGTACATATTATATAATAAAT [XGTACX_site7630]	6.98
AATCCTTACGGACACACACACACGAATAAATAAAAA [CACACA_site4422]	7.36
TACAAAATGGGGAACACACACATATATAAATAAATA [CACACA_site7751]	7.04
ATAATTATTTTAGAAACACACAAATTAGAAAAAACA [CACACA_site3636]	7.21
AATAGAACTATTACACGTACAGAACATGAATTAGTT [XGTACX_site7518]	6.9
TTTTTTAATTAGTACAAACACACATATACAGACAAA [CACACA_site2564]	7.58
TGTTATATATGTAATTGTACACTTATACAAAATTAT [XGTACX_site6350]	7.13
ATTTAGAATGCGTATACACACATATATAGATTTGCT [CACACA_site626]	6.9
AAAAAAATTAGACACACACACACATATAAATATGTA [CACACA_site6618]	6.92
CAAAATATAACATCATCACACACATATACTTTATAT [CACACA_site8292]	6.94
ATTTAAAAATAAAGAACACACATATGTAAAATATAT [CACACA_site3754]	7.26
TTATTAATATATAAATGTACATATACAATACATAAA [XGTACX_site5571]	7.06
TATTTAAGAGTATGAACACACATCATACACATATAA [CACACA_site3617]	6.9
TATGTTTGTGTATATATTTATTTTTATGTAATTATA [GTGCAC_negctrl_site219]	7.22
ATCTATATAATATATACACACAAATATACAAAAAAA [CACACA_site1013]	7.11
ATAAATTAAAGACACACACACATCTGGATACCCCTA [CACACA_site7546]	6.98
TACATGCATTTCTCATGTACATAATTTTCCCATATT [XGTACX_site5158]	6.9
TTATATTATATATATAGTACACATGTAATATTTCAA [XGTACX_site1791]	7.22
TTTTATACATAAATGTGTACGTATATATAATGAATT [XGTACX_site2762]	7.2
TAAATATGCTCACAGATGCACTAACACATTTTTATA [GTGCAC_site9997]	8.14
TATTGTAGAGGCAAAAGTACACATTTAATAATTTCC [XGTACX_site1151]	6.84
TCCTTATATGGGCACACACACACAATAAAATGAAAA [CACACA_site1030]	7.59

Sequence	gcPBM binding intensity (ln)
AAAATTAGGTATATATGTACATATATAAATATATAT [XGTACX_site3555]	7.26
GTTTATATTAAACAAACACACACATATATATATATA [CACACA_site8749]	9.29
TATGCTACAAGGAGAACACACAATTGCCACTTTTGG [CACACA_site2166]	6.72
AACCATTATTTCTCTACACACATTTATGTCATTTAC [CACACA_site1499]	7.13
ATGTATATGATTAAATGTACGTAAACAAATTTGTAA [XGTACX_site8174]	7.13
ACCACATAAAACAAATGTACTTGAAATATATGCGTA [XGTACX_site5155]	6.96
CAAAGGGAAATTAACACACACATATTTATATTTATA [CACACA_site7202]	6.8
TATTAATAAATTTATAAAACAGGTATATATATATAT [CACACA_negctrl_site615]	9.33
AAGAAAACTTAAAATAAAAGCATATTTTATCTTACA [TGCATGCA_negctrl_site366]	6.5
TGCAGTCTGGAGAAGAGTACATAGTATCTGGTAGCT [XGTACX_site2021]	6.72
AGAGTACAAGTAAATACACACATATAGATGAAAATA [CACACA_site6635]	6.96
ATATATATATATATATGTACACACATCAATCATATT [XGTACX_site4005]	9.34
ATATTTTATATTTCTTGTACATATATTTGTAGATAT [XGTACX_site1140]	7.07
TTTCTTACAACAACAACAAAAAAAAATAAATAAAAT [GTGCAC_negctrl_site711]	6.87
AATTTATTTTTAAAAAGTACATACTTAAGAAAACGA [XGTACX_site3660]	7.59
TATTATTTTTTTATTCTATTAAAAAGAAAAAAATGA [CACACA_negctrl_site407]	6.73
CCATTTAAAACATTTTGTACTTATTTTACATTTCTG [XGTACX_site4270]	7.06
TCGACAATTTTATAAAGTACTTATTAGAAATATGAA [XGTACX_site7133]	6.89
GATTCATTTCATAATACACACAACAAATATTTCAAA [CACACA_site120]	7.28
AAACAAATAAAATTTATTAAAAAGGTCATATTATTA [CACACA_negctrl_site85]	6.58
AGAAAAAAAAATTATACATGCATATACGTTTATTTT [TGCATGCA_site529]	6.85
ATAAAAAAAAGACACACACACATATATATATATATA [CACACA_site3073]	9.25
